Results reported in publication PMC6111810.
No constants are given. Whether binding was seen depends on the method and setting. Binding seen in cells or lysates may run through a third protein. Some entries that bind do so weakly or less than the wild type. For part of these data: Where a sequence is shown, tags or fusion partners need not be part of it.

The chains behind the UniProt entries cited, without tags or fusion partners. Where a name states a change or a piece, a line headed by the entry shows the natural chain unless it says otherwise. A line that says so, or that is headed by a name, gives the form on record, which may keep a tag or linker.
HA‐NEDD4 (neural precursor cell expressed, developmentally down‐regulated gene 4), wild type (P46934-4, form named): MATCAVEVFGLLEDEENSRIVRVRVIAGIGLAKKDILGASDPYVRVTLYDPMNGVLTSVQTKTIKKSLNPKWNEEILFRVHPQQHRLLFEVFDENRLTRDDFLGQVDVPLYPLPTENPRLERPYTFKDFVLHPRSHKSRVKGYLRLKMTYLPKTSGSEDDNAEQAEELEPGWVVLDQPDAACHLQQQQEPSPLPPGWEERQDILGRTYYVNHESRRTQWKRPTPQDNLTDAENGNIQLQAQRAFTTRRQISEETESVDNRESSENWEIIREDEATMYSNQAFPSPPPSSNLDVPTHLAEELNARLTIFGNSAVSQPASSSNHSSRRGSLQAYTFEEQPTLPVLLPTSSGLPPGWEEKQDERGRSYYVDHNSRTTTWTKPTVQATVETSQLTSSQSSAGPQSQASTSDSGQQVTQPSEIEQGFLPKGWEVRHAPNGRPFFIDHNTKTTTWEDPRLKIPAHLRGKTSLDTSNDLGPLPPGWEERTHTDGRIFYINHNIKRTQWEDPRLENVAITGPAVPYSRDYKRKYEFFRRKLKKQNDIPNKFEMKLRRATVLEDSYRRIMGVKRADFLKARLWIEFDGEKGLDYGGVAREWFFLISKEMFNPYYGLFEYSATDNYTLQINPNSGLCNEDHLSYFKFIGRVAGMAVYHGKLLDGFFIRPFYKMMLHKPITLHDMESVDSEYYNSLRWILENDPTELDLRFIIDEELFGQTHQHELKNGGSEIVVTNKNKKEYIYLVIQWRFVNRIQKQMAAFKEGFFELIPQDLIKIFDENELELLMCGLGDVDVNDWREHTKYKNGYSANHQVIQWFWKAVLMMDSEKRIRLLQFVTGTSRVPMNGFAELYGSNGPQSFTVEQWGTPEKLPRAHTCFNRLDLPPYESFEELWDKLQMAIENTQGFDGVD

Legend:
[1] = target: GST‐PIP5Kα K88R, full‐length (mouse) (UniProt P70182); assay: pull-down; GST‐fusion proteins of PIP5Kα on glutathione‐Sepharose 4B beads mixed with lysates (~1.0 mg) of HEK293 cells expressing HA‐NEDD4, 4 hours at 4°C; washed with PBS containing 0.1% Tween 20; HA immunoblot; only the target purified
[2] = target: GST‐PIP5Kα, full‐length, wild type (mouse) (UniProt P70182); assay: as above
[3] = target: T1, GST‐fusion protein of the N‐terminal region (1‐65 aa) of PIP5Kα (mouse) (UniProt P70182); assay: as above
T1 sequence: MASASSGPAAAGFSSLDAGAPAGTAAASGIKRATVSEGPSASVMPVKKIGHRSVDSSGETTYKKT

[4] = target: T2, GST‐fusion protein of the C‐terminal region (435‐546 aa) of PIP5Kα (mouse) (UniProt P70182); assay: as above
T2 sequence: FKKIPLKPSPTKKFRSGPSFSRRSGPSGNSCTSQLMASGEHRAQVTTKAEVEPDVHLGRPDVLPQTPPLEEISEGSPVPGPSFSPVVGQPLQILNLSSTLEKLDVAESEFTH

[5] = target: FLAG‐PIP5Kα ∆CT (C‐terminally deleted, 1‐434 aa) (mouse) (UniProt P70182); assay: co-IP; anti‐FLAG IP (anti‐FLAG M2 affinity gel) from lysates of cells cotransfected with FLAG‐PIP5Kα constructs and HA‐NEDD4; HA immunoblot
[6] = target: T3, FLAG‐tagged PIP5Kα C‐terminal region (435‐546 aa) (mouse) (UniProt P70182); assay: as above
T3 sequence: T2 sequence

[7] = target: FLAG‐PIP5Kα AAGF mutant (LPGY to AAGF, 193‐196 aa) (mouse) (UniProt P70182); assay: as above
[8] = target: FLAG‐PIP5Kα K88R (mouse) (UniProt P70182); assay: as above
[9] = target: FLAG‐PIP5Kα (phosphatidylinositol 4‐phosphate 5‐kinase α), wild type (mouse) (UniProt P70182); assay: as above

Measured: binding

HA‐NEDD4 (neural precursor cell expressed, developmentally down‐regulated gene 4), wild type (from UniProt P46934-4 1-900) (enzyme)
no binding: [3] | [5]
binds: all other assays above
